{"source": "paper PMC4336329", "about": "(PLoS ONE, 2015)", "note": "Out of some 310,000 compounds screened, about 14,000 (4.5%) showed an effect of 50% or more. The effect is printed as a negative number. The list shows a part of the results.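 Further: peak tail current of the secondary pulse compared with the same well before compound.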", "data": [{"target": "human ether-à-go-go-related gene (hERG) potassium channel (human, UniProt Q12809)", "sequence (Q12809 whole entry, looked up)": "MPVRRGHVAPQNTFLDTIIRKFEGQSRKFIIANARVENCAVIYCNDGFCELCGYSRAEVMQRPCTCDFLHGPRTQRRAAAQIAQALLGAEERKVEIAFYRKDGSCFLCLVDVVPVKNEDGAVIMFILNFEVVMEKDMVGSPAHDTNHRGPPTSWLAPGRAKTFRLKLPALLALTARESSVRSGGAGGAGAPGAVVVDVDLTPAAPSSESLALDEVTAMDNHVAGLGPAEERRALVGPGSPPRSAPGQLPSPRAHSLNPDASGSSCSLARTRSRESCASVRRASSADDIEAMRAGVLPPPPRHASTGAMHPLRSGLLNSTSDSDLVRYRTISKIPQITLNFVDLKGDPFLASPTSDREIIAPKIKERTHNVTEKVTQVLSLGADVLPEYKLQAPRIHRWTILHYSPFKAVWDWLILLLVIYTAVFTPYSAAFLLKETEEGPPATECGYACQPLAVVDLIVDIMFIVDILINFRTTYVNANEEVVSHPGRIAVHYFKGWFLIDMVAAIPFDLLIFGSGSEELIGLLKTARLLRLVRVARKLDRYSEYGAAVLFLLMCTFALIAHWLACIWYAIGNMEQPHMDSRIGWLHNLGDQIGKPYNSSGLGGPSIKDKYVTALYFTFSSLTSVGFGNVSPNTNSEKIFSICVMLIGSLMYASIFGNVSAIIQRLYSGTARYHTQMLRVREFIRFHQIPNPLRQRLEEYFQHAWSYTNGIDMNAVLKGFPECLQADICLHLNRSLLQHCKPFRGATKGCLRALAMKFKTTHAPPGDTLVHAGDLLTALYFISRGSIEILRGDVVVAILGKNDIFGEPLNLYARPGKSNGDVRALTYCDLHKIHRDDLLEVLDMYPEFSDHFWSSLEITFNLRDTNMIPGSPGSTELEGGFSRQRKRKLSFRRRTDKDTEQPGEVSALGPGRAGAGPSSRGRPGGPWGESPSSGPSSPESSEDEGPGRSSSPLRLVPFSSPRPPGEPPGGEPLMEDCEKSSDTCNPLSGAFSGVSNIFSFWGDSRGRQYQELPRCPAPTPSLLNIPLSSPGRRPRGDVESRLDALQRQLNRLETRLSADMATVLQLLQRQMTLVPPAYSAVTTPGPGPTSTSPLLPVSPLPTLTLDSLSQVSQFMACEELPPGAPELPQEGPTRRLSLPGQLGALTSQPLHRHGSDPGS", "test": "primary screen, population patch clamp on CHO cells stably expressing hERG", "units": {"hERG current change (%, negative = inhibition) at 10uM": "%"}, "values": [{"smiles": "O=C(CC(=O)Nc1ccccc1C(=O)O)NNC(=O)Cc1ccccc1", "hERG current change (%, negative = inhibition) at 10uM": -2.35}, {"smiles": "CNC(=O)CS(=O)(=O)CC(=O)Nc1cc(OCCOC)c(Cl)cc1Cl", "hERG current change (%, negative = inhibition) at 10uM": 10.6}, {"smiles": "Cc1ccccc1C(=O)NC1CC2CCCC(C1)N2Cc1ccc(Cl)cc1", "note": "(stereo not shown)", "hERG current change (%, negative = inhibition) at 10uM": -71}, {"smiles": "CC(=O)c1c(C)nn(CC(O)COc2ccc3ccccc3c2)c1C", "note": "(stereo not shown)", "hERG current change (%, negative = inhibition) at 10uM": 5.03}, {"smiles": "O=C(O)CC(NC(=O)C12CC3CC(CC(C3)C1)C2)c1cc([N+](=O)[O-])ccc1Cl", "note": "(stereo not shown)", "hERG current change (%, negative = inhibition) at 10uM": -1.61}, {"smiles": "COc1cc(CNC(C)(C)C)ccc1OCC(=O)NC(C)(C)C", "hERG current change (%, negative = inhibition) at 10uM": 15.8}, {"smiles": "Cc1cc(S(=O)(=O)Nc2ccc(F)cc2)c(C)s1", "hERG current change (%, negative = inhibition) at 10uM": -4.19}, {"smiles": "COc1cccc(N=C(N)N)c1.Cl", "hERG current change (%, negative = inhibition) at 10uM": 12.6}, {"smiles": "COc1ccc(CN(C(=O)CN2C(=O)c3ccccc3S2(=O)=O)C(C(=O)NCC2CCCO2)c2ccco2)cc1", "note": "(stereo not shown)", "hERG current change (%, negative = inhibition) at 10uM": -4.57}, {"smiles": "Cc1nnsc1-c1c(C(=O)N2CCOCC2)c(C)nn1-c1ccc(Cl)cc1", "hERG current change (%, negative = inhibition) at 10uM": 1.32}, {"smiles": "S=c1nc(NCc2cccc(Cl)c2)c2ccccc2[nH]1", "hERG current change (%, negative = inhibition) at 10uM": 11.2}, {"smiles": "CC1CN(C(=O)CSc2nnc3c(Cl)cc(Cl)cn23)CC(C)O1", "note": "(stereo not shown)", "hERG current change (%, negative = inhibition) at 10uM": 2.55}, {"smiles": "Cc1ccc(N2CC(C(=O)NC3CCSC3=O)CC2=O)cc1", "note": "(stereo not shown)", "hERG current change (%, negative = inhibition) at 10uM": 18.7}, {"smiles": "Cc1cc(C)n(CC(=O)Nc2ccccc2)n1", "hERG current change (%, negative = inhibition) at 10uM": 8.25}, {"smiles": "Cc1nc2nc[nH]n2c(=O)c1CCOC(=O)c1c(F)cccc1F", "hERG current change (%, negative = inhibition) at 10uM": 11.4}, {"smiles": "N#Cc1ccc(Cn2cc(C(=O)c3ccco3)c3ccccc32)cc1", "hERG current change (%, negative = inhibition) at 10uM": -76.7}, {"smiles": "CCN(CC)c1ccc(/C=N/N=C(c2ccccc2)c2ccccc2)c(O)c1", "hERG current change (%, negative = inhibition) at 10uM": -7.56}, {"smiles": "Cc1ccc(-c2nc3ccc(NS(=O)(=O)c4ccccc4)cc3[nH]2)o1", "hERG current change (%, negative = inhibition) at 10uM": -47.3}, {"smiles": "c1ccc(CN(Cc2ccco2)C(c2ccncc2)c2nnnn2C2CCCC2)cc1", "note": "(stereo not shown)", "hERG current change (%, negative = inhibition) at 10uM": -14.1}, {"smiles": "CCCOc1ccc(-c2cc(C(F)(F)F)c(C#N)c(SCC(=O)O)n2)cc1", "hERG current change (%, negative = inhibition) at 10uM": 26}, {"smiles": "O=C(NCC1CCCO1)C1CCCN1C(=O)NC1CCCCC1", "note": "(stereo not shown)", "hERG current change (%, negative = inhibition) at 10uM": 11.9}, {"smiles": "CSCCC(NC(=O)c1cccc(S(=O)(=O)N2CCOCC2)c1)C(=O)Nc1cccc(C)c1", "note": "(stereo not shown)", "hERG current change (%, negative = inhibition) at 10uM": 14.1}, {"smiles": "COC(=O)NNS(=O)(=O)c1ccc(C)cc1", "hERG current change (%, negative = inhibition) at 10uM": 28.5}, {"smiles": "O=C1Nc2ccc(Br)cc2C(c2ccccc2)=NC1O", "note": "(stereo not shown)", "hERG current change (%, negative = inhibition) at 10uM": 13.1}, {"smiles": "CC1(c2nnc(-c3ccncc3)o2)CC(c2c(Cl)cccc2Cl)=NO1", "note": "(stereo not shown)", "hERG current change (%, negative = inhibition) at 10uM": -69.8}]}]}
